# About 14,000 (4.5%) of roughly 310,000 compounds showed an effect of 50% or more. The effect is printed as a negative number. Some of the results follow.
# Biological target: human ether-à-go-go-related gene (hERG) potassium channel (human, UniProt Q12809)
# Test: primary screen, population patch clamp on CHO cells stably expressing hERG
# 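Also: peak tail current of the secondary pulse compared with the same well before compound.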
# Sequence of human ether-à-go-go-related gene (hERG) potassium channel (Q12809 whole entry, looked up): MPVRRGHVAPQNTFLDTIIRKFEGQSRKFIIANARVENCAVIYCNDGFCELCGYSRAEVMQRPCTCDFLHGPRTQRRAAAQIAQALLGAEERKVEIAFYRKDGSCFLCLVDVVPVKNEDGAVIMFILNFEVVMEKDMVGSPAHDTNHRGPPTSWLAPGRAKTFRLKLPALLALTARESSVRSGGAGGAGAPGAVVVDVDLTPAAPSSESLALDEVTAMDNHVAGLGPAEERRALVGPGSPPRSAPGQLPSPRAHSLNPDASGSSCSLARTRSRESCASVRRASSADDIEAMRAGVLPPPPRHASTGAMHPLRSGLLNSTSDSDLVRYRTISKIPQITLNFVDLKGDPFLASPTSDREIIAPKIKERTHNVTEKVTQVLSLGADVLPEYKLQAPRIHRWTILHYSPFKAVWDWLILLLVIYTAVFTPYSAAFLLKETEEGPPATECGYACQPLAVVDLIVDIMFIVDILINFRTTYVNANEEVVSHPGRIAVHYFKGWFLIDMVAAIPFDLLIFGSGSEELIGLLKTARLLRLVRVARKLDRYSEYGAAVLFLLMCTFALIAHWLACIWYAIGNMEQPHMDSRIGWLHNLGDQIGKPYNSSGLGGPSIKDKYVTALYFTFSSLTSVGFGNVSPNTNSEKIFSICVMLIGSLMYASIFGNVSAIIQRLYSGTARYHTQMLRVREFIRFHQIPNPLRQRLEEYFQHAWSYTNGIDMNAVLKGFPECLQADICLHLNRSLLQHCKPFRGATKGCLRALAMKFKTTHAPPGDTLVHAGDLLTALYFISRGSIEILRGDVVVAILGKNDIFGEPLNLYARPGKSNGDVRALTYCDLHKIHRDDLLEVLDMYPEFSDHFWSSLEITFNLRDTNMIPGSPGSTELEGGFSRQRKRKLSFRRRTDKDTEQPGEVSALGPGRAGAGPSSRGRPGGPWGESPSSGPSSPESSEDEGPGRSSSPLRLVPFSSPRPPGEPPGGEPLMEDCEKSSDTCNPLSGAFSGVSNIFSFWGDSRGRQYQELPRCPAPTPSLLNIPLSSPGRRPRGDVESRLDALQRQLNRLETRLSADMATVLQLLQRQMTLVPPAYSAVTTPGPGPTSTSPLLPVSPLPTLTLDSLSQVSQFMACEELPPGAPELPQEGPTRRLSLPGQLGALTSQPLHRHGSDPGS
row,Structure (SMILES),"hERG current change (%, negative = inhibition) at 10uM"
1,Nc1c(N2CCCC2)c2ccccc2oc1=O,2.82%
2,CC(Oc1cccc(Cl)c1)C(=O)N(C)CC(=O)Nc1ccc(N2CCOCC2)cc1 (centres unmarked),2.36%
3,COC(=O)C1=C(C)N(C)C(=S)NC1c1ccc(OC)cc1OC (centres unmarked),-13.2%
4,COc1cc(Br)cc(CN2CCN(C/C=C/c3ccccc3)CC2)c1O,-32.1%
5,CCN1C(=O)/C(=C\N2CCN(C)CC2)SC1=S,4.08%
6,CC(C)C(=O)Nc1cccc(-c2cn3ccccc3n2)c1,-26%
7,O=C(c1ccc2c(c1)[nH]c(=S)n1c3ccccc3nc21)N1CCN(c2cccc(Cl)c2)CC1,8.29%
8,COc1ccc2oc(C(=O)OCC(=O)Nc3ccc(C(=O)N(C)C)cc3)c(C)c2c1,5.77%
9,CCOc1ccc2nc(COC(=O)c3cccs3)c(C(=O)c3ccccc3)[n+]([O-])c2c1,6.46%
10,Cn1ncc(Br)c1C(=O)NC1C2CC3CC(C2)CC1C3 (centres unmarked),14.4%
11,CC(=O)c1ccc(NC(=O)CN2CCN(S(=O)(=O)c3ccc4ccccc4c3)CC2)cc1,-20.8%
12,CSc1ccccc1NC(=S)Nc1ccccc1C(F)(F)F,1.63%
13,COc1ccc(S(=O)(=O)N(CC(=O)Nc2ccc(S(=O)(=O)N3CCOCC3)cc2)c2ccccc2)cc1,3.29%
14,NC(=O)c1cc2ccccc2o/c1=N\NC(=O)c1ccco1,-14%
15,Cl.OC(COC(c1ccc(Cl)cc1)c1ccc(Cl)cc1)CN1CCc2ccccc2C1 (centres unmarked),-61.6%
16,OCCNC(=S)NC1CCCCC1,-6.97%
17,CC(NC(=O)c1ccc(F)cc1)c1nc2ccccc2n1Cc1ccccc1F (centres unmarked),1.15%
18,O=C(CN1C(=O)NC2(CCCCC2)C1=O)N1CCN(S(=O)(=O)c2ccccc2)CC1,13.8%
19,CCOc1ccccc1C(=O)OCC(=O)Nc1nnc(-c2ccccc2)o1,-8.2%
20,COc1ccccc1N(CN1CCCC1=O)C(=O)c1c(F)cccc1F,-2.49%
21,COc1ccc(N2CCN(C(=O)CCCn3c(=O)[nH]c4cc(Cl)ccc4c3=O)CC2)cc1,4.16%
22,O=C(O)/C=C\C(=O)Nc1ccc(N2CCN(c3ccc(F)cc3)CC2)cc1,-0.0699%

row,Structure (SMILES),"hERG current change (%, negative = inhibition) at 10uM"
1,O=C(O)C(=O)O.OC(CNCc1ccccc1)Cn1ccc2ccccc21 (centres unmarked),-21.3%
2,Cc1ccc(CN2CCC(CNC(=O)c3ccc(NC(=O)C4=CSCCO4)cc3)CC2)cc1,-49%
3,O=C(N/N=C/c1cccc(Cl)c1Cl)Nc1ccccc1,-1.02%
4,CC(C)Oc1ccc(S(=O)(=O)N2CCOCC2)cc1NC(=O)C(C)Oc1ccc(F)cc1 (centres unmarked),-2.05%
5,CC1(C)CC(=O)C(C=NCCN2CCN(C(=S)NC3CCCCC3)CC2)=C(O)C1,-41.1%
6,COc1ccc(NC(=O)CCCn2c(=O)c3sccc3n(Cc3ccccc3C)c2=O)cc1,-45.7%
7,CCCc1oc(C(=O)O)cc1CN1CCCC1.Cl,2.48%
8,CCn1cc(CNC(=O)c2cccc([N+](=O)[O-])c2)c(C)n1,8.09%
9,CCCC(=O)N1CCN(c2ccc(NC(=O)c3cccs3)cc2Cl)CC1,-66.8%
10,CN(C)/C=C(\C=O)c1cccc(Cl)c1,15.4%
11,Fc1ccc(-[n+]2nc(Nc3ccccc3)sc2-c2c3ccccc3cc3ccccc23)cc1.[Cl-],18.2%
12,CC(NC(=O)Cc1ccc(NS(=O)(=O)c2cccc(C(F)(F)F)c2)cc1)c1ccccn1 (centres unmarked),-7.55%
13,Cn1nc(C(=O)Nc2ccccc2)c2c1-c1ccccc1S(=O)(=O)C2,-0.138%
14,CCOC(=O)C(C(=O)N1CCOCC1)C1CCCCC1 (centres unmarked),12.2%
15,Cc1ccc(CN2CCN(C(=O)CCN3C(=O)c4ccccc4C3=O)CC2)cc1,-55.4%
16,O=C(Nc1ccccc1)C1=C[C@H](c2coc3ccccc3c2=O)C[C@H](OCc2ccc(CO)cc2)O1,-32.4%
17,O=C(CSc1nc(-c2ccc(F)cc2)cs1)N1CCN(C(=O)c2ccco2)CC1,-57%
18,COc1ccccc1CNC(=O)CN(C)S(=O)(=O)c1ccc2c(c1)n(C)c(=O)c(=O)n2C,-6.4%
19,N#Cc1c2n(c(=S)n(-c3ccccc3)c1=O)CCCCC2,3.42%
20,Cc1ccc(CNc2ccc(N3CCOCC3)cc2)cc1,-6.93%
21,Fc1ccccc1OCCSc1ncnc2nc[nH]c12,5.08%
22,CCc1nnc(NC(=O)CSc2nnc(CCc3nc4ccccc4[nH]3)n2C)s1,23.1%
